In publication PMC4041426, “Structural basis for binding the TREX2 complex to nuclear pores, GAL1 localisation and mRNA export” (Nucleic Acids Research, 2014) one finds binding data, which are given here for four molecules.

Chains of the proteins cited; added tags and fusions are not shown. Residues count along the entry.
UniProt P20676, residues 191-385: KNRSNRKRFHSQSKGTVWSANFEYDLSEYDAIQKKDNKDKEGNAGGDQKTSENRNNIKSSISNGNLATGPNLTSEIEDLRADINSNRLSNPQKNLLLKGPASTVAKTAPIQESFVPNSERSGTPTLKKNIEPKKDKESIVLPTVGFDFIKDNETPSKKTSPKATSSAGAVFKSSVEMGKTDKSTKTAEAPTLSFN

These are yes or no findings as the source states them, for the method shown. For part of these data: Binding seen in cells or lysates may run through a third protein. Some results given as binding are weak or reduced against the parent protein; the word gives no strength. For part of these data: Tags and fused reporters may be left off the sequences shown.

The target in test [1] is T1, Sac3^723–805 (wild-type) (S. cerevisiae) (UniProt P46674).
T1 sequence: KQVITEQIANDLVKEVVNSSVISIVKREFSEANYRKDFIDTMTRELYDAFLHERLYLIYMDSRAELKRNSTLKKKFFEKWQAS
Briefly: co-purification (SDS-PAGE of the purified complexes); cells with co-expressed Sac3^723–805:Cdc31 mixed with cells with Sus1 in excess; complex purified and compared by SDS-PAGE.

For test [2], the target named is T2, GST-Sac3^753–805 wild-type (WT) (S. cerevisiae) (UniProt P46674).
T2 sequence: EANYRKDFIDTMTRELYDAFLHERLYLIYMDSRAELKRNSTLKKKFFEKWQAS
Description: pull-down; clarified lysate with co-expressed GST-Sac3^753–805 and Cdc31 mixed with clarified lysate with Sus1, Glutathione Sepharose 4B, 4°C, 1 h; wash 50 mM Tris-HCl pH 8.0, 200 mM NaCl, 1 mM DTT; SDS-PAGE and Coomassie staining.

Test [3] addresses T3, GST-Nup1^191–385 (S. cerevisiae, UniProt P20676 191-385).
T3 construct: source: E. coli BL21 (DE3) CodonPlus RIL; immobilised on Glutathione Sepharose 4B from clarified lysate; not shown: GST, N-terminal, kept
Description: pull-down; GST-Nup fusion (or GST) immobilised on Glutathione Sepharose 4B from clarified bacterial lysate and washed with PBS-DTT; purified Sac3^CID complex, sub-complex, mutant variant or Kap95 added at 15.4 μM; 4°C, 1 h; SDS-PAGE and Coomassie staining; both purified.

B1: Cdc31 (protein, UniProt P06704 1-161)
chain: MSKNRSSLQSGPLNSELLEEQKQEIYEAFSLFDMNNDGFLDYHELKVAMKALGFELPKREILDLIDEYDSEGRHLMKYDDFYIVMGEKILKRDPLDEIKRAFQLFDDDHTGKISIKNLRRVAKELGETLTDEELRAMIEEFDLDGDGEINENEFIAICTDS
In the case of B1, the binding entry in test [1] and in test [2] was “binds” in each case.

B2: Sac3^787–805 sub-complex with Cdc31 (complex, UniProt P46674 787-805; P06704 1-161)
chain 1: ELKRNSTLKKKFFEKWQAS
chain 2: MSKNRSSLQSGPLNSELLEEQKQEIYEAFSLFDMNNDGFLDYHELKVAMKALGFELPKREILDLIDEYDSEGRHLMKYDDFYIVMGEKILKRDPLDEIKRAFQLFDDDHTGKISIKNLRRVAKELGETLTDEELRAMIEEFDLDGDGEINENEFIAICTDS
With B2, the binding entry in test [3] is listed as “no binding (tested: 15.4 μM)”.

B3: Sus1 (protein, UniProt Q6WNK7 1-96)
chain: MTMDTAQLKSQIQQYLVESGNYELISNELKARLLQEGWVDKVKDLTKSEMNINESTNFTQILSTVEPKALEMVSDSTRETVLKQIREFLEEIVDTQ
For the molecule B3, the binding entry in test [1] and in test [2] was “binds” throughout.

B4: Sac3^723–753 sub-complex with Sus1A (complex, UniProt P46674 723-753; Q6WNK7 1-96)
chain 1: KQVITEQIANDLVKEVVNSSVISIVKREFSE
chain 2: MTMDTAQLKSQIQQYLVESGNYELISNELKARLLQEGWVDKVKDLTKSEMNINESTNFTQILSTVEPKALEMVSDSTRETVLKQIREFLEEIVDTQ
As for B4, in test [3], the binding result is “no binding (tested: 15.4 μM)”.
